# Among all 100,000 compounds or so, about 250 (0.25%) were called active. The inconclusive results got no clear call from the source; some entries with a clear call stand among them for comparison. Calls follow the shape of the dose curve; as a rule, active = well fitted inhibition curve with a large enough effect; inconclusive = small, poorly fitted or top-dose-only effect; inactive = flat fitted curve, though single readings scatter. Potencies of inconclusive entries are left out as doubtful fits.
# Target: Alanine aminotransferase 2 (Homo sapiens) (UniProt Q8TD30)
# Chain of UniProt Q8TD30 (Q8TD30 whole entry, looked up): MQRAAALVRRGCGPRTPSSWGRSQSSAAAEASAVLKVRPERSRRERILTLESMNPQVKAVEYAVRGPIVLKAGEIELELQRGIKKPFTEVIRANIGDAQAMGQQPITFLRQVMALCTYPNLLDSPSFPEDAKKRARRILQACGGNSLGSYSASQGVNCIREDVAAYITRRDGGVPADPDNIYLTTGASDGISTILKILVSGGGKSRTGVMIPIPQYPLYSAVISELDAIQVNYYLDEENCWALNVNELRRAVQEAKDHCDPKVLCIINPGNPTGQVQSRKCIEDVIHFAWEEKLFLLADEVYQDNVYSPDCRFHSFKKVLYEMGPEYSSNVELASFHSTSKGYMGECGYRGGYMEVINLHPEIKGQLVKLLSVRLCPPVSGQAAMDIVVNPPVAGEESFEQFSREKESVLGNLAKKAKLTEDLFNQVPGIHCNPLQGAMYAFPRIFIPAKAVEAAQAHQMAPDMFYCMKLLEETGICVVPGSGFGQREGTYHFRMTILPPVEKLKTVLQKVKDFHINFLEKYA
# Assay: Primary qHTS assay for inhibitors of Glutamate pyruvate transaminase 2 (GPT2); also: nearly all actives have a fitted effect of over 60% in size
# Details: Recombinant GPT2, coupled pyruvate oxidase/HRP Amplex Red fluorescence; activity change, negative = inhibition: at 57.7 µM (top of the series) unless noted; series mostly up to 57.7 µM
# Outline: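 Fluorescence read-out: pyruvate from GPT2 turnover coupled to pyruvate oxidase, HRP and Amplex Red (0.2mM ThPP, 0.2U/mL PO and HRP, 50uM Amplex final). Substrates 250uM a-KG, 2mM L-alanine; enzyme 10ng/uL; 30 min RT.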
# % is scaled to controls: 0 for no effect and ±100 for the full control effect; potency is read from the fitted curve at half-maximal effect; tags tell the direction and shape of the fitted curve.
SMILES,Potency,"activity change, negative = inhibition",outcome
Nc1nc2c(s1)C(c1cccc(F)c1)CC(=O)N2 (stereo not drawn),"inconclusive [inhibitor, full curve, poor fit]",,
CN(C)C(=O)c1ccc(-c2cccc(-c3ccn(CC4CC4)n3)c2)o1,"inconclusive [inhibitor, single point]",,
O=C(NCC(F)(F)F)C1CCN(Cc2ccccc2-c2cccnc2)CC1,"inconclusive [inhibitor, full curve, poor fit]",,
CC(C)c1noc([C@@H]2CCCN2C(=O)Cn2nnnc2CN(C)C(C)C)n1,"inconclusive [inhibitor, full curve, poor fit]",,
O=C(NC[C@H]1O[C@@H](Cc2nc(-c3ccc(OC(F)(F)F)cc3)no2)[C@H](O)[C@@H]1O)C1CC1,"inconclusive [inhibitor, single point]",,
COCCOc1ncccc1-c1noc([C@@H]2CCCN2Cc2ccc(OC)cc2)n1,,inactive: 0.757% [at 88.5 µM],
O=C(c1ccco1)N1CCN(C(=O)c2nnn3c2COC(c2ccccc2)C3)CC1 (stereo not drawn),,,inactive
COc1cccc(-c2cccc(C(=O)N3CCN(C(=O)c4ccccc4F)CC3)c2)c1,"inconclusive [inhibitor, single point]",,
Cc1ccc([C@H]2CN(C(=O)CN3CCOC3=O)C[C@@H]2N)o1,"inconclusive [inhibitor, single point]",,
CCc1nnc(CN(C)C(=O)c2cccc(CCC(C)(C)O)c2)o1,,inactive: -0.246%,
CSc1cccc(NC(=O)Cn2ccn3nc4c(c3c2=O)CCCCC4)c1,,,inactive
COCCN1CCOC2(CCN([S+](=O)([O-])c3ccc(F)cc3F)CC2)C1=O,"inconclusive [inhibitor, partial curve, poor fit]",,
CC[C@H]1CN(C(=O)c2ccc(F)cc2)CC[C@H]1CC(=O)NCc1ccccc1,"inconclusive [inhibitor, single point]",,
CC(=O)Nc1ccc(C(=O)NC[C@@H]2C=C(C)[C@H](CC(=O)NCCN3CCOCC3)C[C@H]2C(C)C)cc1,"inconclusive [inhibitor, single point]",,
CC(=O)N1CCN(C(=O)c2ccc3nnc(Cc4ccc(Cl)cc4)n3c2)CC1,,inactive: 0.009%,
CC(=O)c1cccc(NC(=O)O[C@@H]2CO[C@H]3[C@@H]2OC[C@@H]3NC(=S)Nc2cccc3ccccc23)c1,"inconclusive [inhibitor, single point]",,
Cc1ccc2nc3n(c2c1)[C@@H](CNCc1ccccc1)COC3,,,inactive [at 88.5 µM]
O=C(CN1C(=O)NC(c2ccc(Cl)cc2)C2=C1COC2=O)NCCc1ccc(Cl)cc1 (stereo not drawn),"inconclusive [inhibitor, single point]",,
